Source: PMC4336329 (PLoS ONE, 2015)
About 2,200 (0.71%) of roughly 310,000 compounds showed an effect of 50% or more. The effect is printed as a negative number. The list shows a part of the results.

Biological target: human ether-à-go-go-related gene (hERG) potassium channel (human, UniProt Q12809)
Assay: primary screen, population patch clamp on CHO cells stably expressing hERG

Sequence of human ether-à-go-go-related gene (hERG) potassium channel (Q12809 whole entry, looked up): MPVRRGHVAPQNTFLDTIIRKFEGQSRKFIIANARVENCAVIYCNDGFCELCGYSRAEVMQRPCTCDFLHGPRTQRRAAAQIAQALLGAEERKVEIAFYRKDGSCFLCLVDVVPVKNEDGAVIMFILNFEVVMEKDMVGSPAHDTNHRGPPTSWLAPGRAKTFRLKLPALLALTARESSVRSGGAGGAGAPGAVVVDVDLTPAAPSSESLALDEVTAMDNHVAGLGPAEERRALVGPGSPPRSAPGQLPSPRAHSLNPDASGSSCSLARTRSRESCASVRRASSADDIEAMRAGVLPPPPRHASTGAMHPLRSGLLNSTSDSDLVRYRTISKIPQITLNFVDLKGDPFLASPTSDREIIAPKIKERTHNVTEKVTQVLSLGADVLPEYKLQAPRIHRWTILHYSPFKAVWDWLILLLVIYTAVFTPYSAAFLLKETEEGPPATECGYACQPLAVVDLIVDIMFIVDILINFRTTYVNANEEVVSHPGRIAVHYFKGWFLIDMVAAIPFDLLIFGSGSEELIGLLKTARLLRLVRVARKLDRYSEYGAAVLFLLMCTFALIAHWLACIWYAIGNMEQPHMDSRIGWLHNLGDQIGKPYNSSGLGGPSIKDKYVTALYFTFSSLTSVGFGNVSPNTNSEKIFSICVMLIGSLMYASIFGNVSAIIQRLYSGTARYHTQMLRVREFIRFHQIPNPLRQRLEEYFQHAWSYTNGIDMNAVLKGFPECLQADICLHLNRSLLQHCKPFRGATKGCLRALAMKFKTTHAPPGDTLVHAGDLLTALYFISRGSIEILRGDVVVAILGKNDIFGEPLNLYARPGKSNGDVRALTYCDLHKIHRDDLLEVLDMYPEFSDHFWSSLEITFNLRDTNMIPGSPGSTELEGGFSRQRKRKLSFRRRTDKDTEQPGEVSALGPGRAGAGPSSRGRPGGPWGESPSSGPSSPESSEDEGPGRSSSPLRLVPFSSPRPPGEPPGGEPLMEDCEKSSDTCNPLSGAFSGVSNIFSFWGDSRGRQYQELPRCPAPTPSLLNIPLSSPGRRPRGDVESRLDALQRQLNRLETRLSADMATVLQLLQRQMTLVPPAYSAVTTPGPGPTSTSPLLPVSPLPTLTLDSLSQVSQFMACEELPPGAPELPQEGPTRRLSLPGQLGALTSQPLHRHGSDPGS

First: Cc1ccsc1C(=O)Nc1ccc(O)c(-c2nc3ccccc3s2)c1
Second: CC(=O)c1ccc(NC(=O)c2cc3ccccc3o2)cc1
The “hERG current change (%, negative = inhibition) at 1uM” value of the first is lower: 9.33% for the first, 13.3% for the second.

Compared with CCOC(=O)c1sc2nc(NC(=O)C(C)(C)C)sc2c1C, CC(C)(C)CC(=O)Nc1nnc(SCC(=O)NCc2cccs2)s1 is higher in “hERG current change (%, negative = inhibition) at 1uM” value: 5.16% for the first, 6.94% for the second.

First: O=c1cc(-c2ccc(C3CCCCC3)cc2)[nH][nH]1
Second: Cc1ccc(C(C)NC(=S)NC2CCCCC2)c(C)c1 (centres unmarked)
The “hERG current change (%, negative = inhibition) at 1uM” value of the first is lower: 11.5% for the first, 13.7% for the second.

Going from COc1cccc(OCCSc2nc3ccccc3c(=O)[nH]2)c1 to COc1cccc(NC(=O)NCc2ccccc2F)c1, the “hERG current change (%, negative = inhibition) at 1uM” value rises from 9.47% to 12.7%.

Compared with CC(=O)c1cccc(OC(=O)c2ccc3c(=O)n4c(nc3c2)CCC4)c1, COc1ccc(C(=O)Nc2cc3c4c(c2)CC(=O)N4CCC3)cc1 is higher in “hERG current change (%, negative = inhibition) at 1uM” value: -0.703% for the first, 0.325% for the second.

Compared with Cc1ccc(Cl)cc1NC(=S)N(CCN(C)C)Cc1cccs1, CCN(CC)S(=O)(=O)c1ccc(C)c(NC(=O)Cn2cnc3cc([N+](=O)[O-])ccc3c2=O)c1 is lower in “hERG current change (%, negative = inhibition) at 1uM” value: 9.99% for the first, -6.83% for the second.

First: COc1ccc(N2CCN(C(=S)Nc3ccc(OC)cc3OC)CC2)cc1
Second: COc1ccc(NC(=O)c2c(-c3ccccc3)noc2C)c(OC)c1
The “hERG current change (%, negative = inhibition) at 1uM” value of the first is higher: 12% for the first, 1.7% for the second.

First: COC(=O)CN(c1ccc(OC)cc1)S(=O)(=O)c1ccc(OC)c(OC)c1
Second: COc1ccc(OC)c(N(CC(=O)N2CCCCC2)S(=O)(=O)c2ccc(OC)c(OC)c2)c1
The “hERG current change (%, negative = inhibition) at 1uM” value of the first is lower: 0.542% for the first, 16.5% for the second.

Going from Cc1ccc(S(=O)(=O)C2(C(=O)N3CCN(C4CCCCC4)CC3)CC2)cc1 to Cc1c(C(=O)O)oc2ccc(S(=O)(=O)NC3CCCCCCC3)cc12, the “hERG current change (%, negative = inhibition) at 1uM” value rises from 2.75% to 17.9%.

Going from Cn1nccc1C(=O)OCC(=O)Nc1nc(-c2ccccc2)cs1 to CC(=O)O.CC(=O)Oc1ccc(-c2csc(Nc3ccc(S(N)(=O)=O)cc3)n2)cc1, the “hERG current change (%, negative = inhibition) at 1uM” value rises from -9.27% to 7.11%.

Compared with Cc1ccc(NC(=O)Cn2cc([N+](=O)[O-])nc2C)cc1C, COc1ccc(NC(=O)CN2C(=O)COc3ccc(C)cc32)cc1 is lower in “hERG current change (%, negative = inhibition) at 1uM” value: 13.1% for the first, 12.8% for the second.

First: O=C(Nc1cccc(CCc2ccccn2)c1)c1ccc(Cl)cc1
Second: COc1cccc(NC(=O)Cn2c(=O)c3c(ncn3Cc3ccccc3)n(Cc3ccccc3)c2=O)c1
The “hERG current change (%, negative = inhibition) at 1uM” value of the first is higher: 5.78% for the first, 3.04% for the second.

First: COc1cccc(CN(C(=O)c2cccs2)C2CCS(=O)(=O)C2)c1 (centres unmarked)
Second: COc1cccc(OC)c1C(=O)Nc1cccnc1
The “hERG current change (%, negative = inhibition) at 1uM” value of the first is higher: 7.21% for the first, -2.82% for the second.

First: CC1CCN(CC(O)COc2ccc(-c3ccccc3)cc2)CC1.Cl (centres unmarked)
Second: COc1ccc(-n2nnnc2-c2ccccc2)cc1
The “hERG current change (%, negative = inhibition) at 1uM” value of the first is lower: -25.2% for the first, 13.6% for the second.

Going from COc1cc(CCCN2C(=S)NC[C@@H]2c2ccccc2)cc(OC)c1OC to COc1cc(-c2nnc(Sc3ccc(C(F)(F)F)cc3[N+](=O)[O-])o2)cc(OC)c1OC, the “hERG current change (%, negative = inhibition) at 1uM” value falls from 12.8% to 7.1%.

First: Cc1n[nH]c(=O)c2c(NC(=O)COC(=O)c3cc(F)cc(F)c3)oc(C)c12
Second: CCOC(=O)CCCNC(=O)COC(=O)c1ccc(O)cc1
The “hERG current change (%, negative = inhibition) at 1uM” value of the first is higher: 15.9% for the first, 7.59% for the second.

First: COc1ccc(/C=N/NC(=O)c2nnn(-c3nonc3N)c2CN(C)C2CCCCC2)cc1
Second: COc1ccc(N(C(=O)c2snc(C(N)=O)c2N)C(C(=O)NC2CCCC2)c2cc(OC)ccc2OC)c(OC)c1 (centres unmarked)
The “hERG current change (%, negative = inhibition) at 1uM” value of the first is lower: 2.26% for the first, 18.2% for the second.

Going from C=CCn1c(-c2ccccc2)nc(=S)c2c1CC(C)(C)OC2 to CC1(C)Cc2nc(-c3ccccc3)nc(SCC(=O)N3CCCC3)c2CO1, the “hERG current change (%, negative = inhibition) at 1uM” value falls from 11.6% to 11%.

Going from CCC(=O)Nc1nc(NCc2ccccc2OC)n(-c2ccccc2)n1 to CCOc1ccccc1NC(=S)NCCc1ccccc1, the “hERG current change (%, negative = inhibition) at 1uM” value rises from 5.66% to 9.57%.

Going from CSc1ccccc1NC(=O)Nc1cccc2ccccc12 to C/C(CC(=O)NCc1ccco1)=N\NC(=O)Cc1cccc2ccccc12, the “hERG current change (%, negative = inhibition) at 1uM” value falls from 12.8% to 5.84%.

Going from COc1ccc(C2NC(=O)c3sc(=S)n(-c4ccccc4)c3N2)cc1 (centres unmarked) to COc1ccc(N2C(=O)CC(Sc3nnc(-c4ccccc4)o3)C2=O)cc1 (centres unmarked), the “hERG current change (%, negative = inhibition) at 1uM” value falls from 2.53% to -17.1%.

Compared with Nn1c(SCC(=O)Nc2cc(C(F)(F)F)ccc2Cl)nncc1=O, COCCN1C(=O)N[C@@H](c2cccc(C(F)(F)F)c2)C(C(=O)OC)=C1C is higher in “hERG current change (%, negative = inhibition) at 1uM” value: 2.57% for the first, 16.1% for the second.

Going from COc1ccc(NC(=O)CSc2nnc(NC(=O)C3CCC3)s2)c(OC)c1 to Cc1ccc(S(=O)(=O)N2CCCCC2)cc1NC(=O)CSc1nccn1C, the “hERG current change (%, negative = inhibition) at 1uM” value falls from 14.4% to -1.66%.

Going from CCOC(=O)C1(CCOc2ccccc2)CCN(Cc2ccc3nonc3c2)CC1 to Cc1ccc2c(c1)C1CCCC3C1N2CC(=O)N3Cc1ccccc1 (centres unmarked), the “hERG current change (%, negative = inhibition) at 1uM” value rises from 0.31% to 12.9%.

Compared with CCN(CC)c1ccc(N=Cc2c(O)n(-c3ccccc3C)c(=O)[nH]c2=O)cc1, Cc1c(C#N)c(=O)oc2ccc3ccccc3c12 is higher in “hERG current change (%, negative = inhibition) at 1uM” value: 7.41% for the first, 10.6% for the second.

Compared with CCCC(=O)NCCc1ccc(F)cc1, CCCC(=O)Nc1ccc(S(=O)(=O)N2CCCC2)cc1 is lower in “hERG current change (%, negative = inhibition) at 1uM” value: 11.1% for the first, 1.43% for the second.

Going from CCOc1ccc(NC(=O)c2cc3cc4ccc(OC)cc4nc3o2)cc1 to COc1ccc(CN(C)C(=O)c2ccccc2Sc2ccccc2C#N)c(OC)c1, the “hERG current change (%, negative = inhibition) at 1uM” value falls from 13.7% to 9.02%.

First: COC(=O)/C=C1\S/C(=N\N=C\CC(=O)OC)NC1=O
Second: COC(=O)c1ccc(NC(=O)CN2CCN(S(=O)(=O)c3cc(Cl)ccc3OC)CC2)cc1
The “hERG current change (%, negative = inhibition) at 1uM” value of the first is higher: 17.3% for the first, 10.2% for the second.

Going from O=C(NC1CC2CCCC(C1)N2C(=O)N1CCCCC1)C1CCCCC1 (centres unmarked) to CCOC(=O)C1CCN(C(=O)CNC(=O)OC(C)(C)C)CC1, the “hERG current change (%, negative = inhibition) at 1uM” value rises from -4.15% to 9.38%.

Going from CCOC(=O)c1nnc(-c2ccc(C)cc2)nc1Sc1ccc(Cl)cc1 to O=C(Nc1ccc(F)cc1)N1CCN(c2ccc3nnc(-c4ccc(F)cc4)n3n2)CC1, the “hERG current change (%, negative = inhibition) at 1uM” value falls from 6.19% to -24.4%.

First: CCOc1cc(C(=O)Nc2ccc3c4c(cccc24)C(=O)N3CC)cc(OCC)c1OCC
Second: Cc1cccc(NC(=O)NCc2ccc3c(c2)cc(C)n3C)c1
The “hERG current change (%, negative = inhibition) at 1uM” value of the first is lower: 0.475% for the first, 8.52% for the second.

Going from Cc1ccc(CNS(=O)(=O)c2ccc(CN3C(=O)c4cccnc4C3=O)cc2)o1 to Cc1ccc(CNC(=O)C(=O)NCC2OCCN2S(=O)(=O)c2ccc(Br)cc2)cc1 (centres unmarked), the “hERG current change (%, negative = inhibition) at 1uM” value falls from 14.6% to 8%.

Going from COc1cc(/C=C2\C(=O)NC(=O)N(CCc3ccc(F)cc3)C2=O)ccc1O to Cc1ccc(O)c(C(=O)c2cnc3c(c2)c(=O)n(C)c(=O)n3C)c1, the “hERG current change (%, negative = inhibition) at 1uM” value rises from 10.3% to 15.9%.

Compared with CCCCn1c(N)c(N(CC(C)C)C(=O)C2CCCN(C(=O)c3ccc(Cl)cc3)C2)c(=O)[nH]c1=O (centres unmarked), CCOC(=O)C1CCCN(C(=O)c2cc3c(=O)n(C)c4ccccc4c3n2C)C1 (centres unmarked) is lower in “hERG current change (%, negative = inhibition) at 1uM” value: 19.5% for the first, 6.9% for the second.

Going from O=[N+]([O-])c1ccc(N2CCN(c3ccc(O)cc3)CC2)c(Cl)c1 to COc1ccc(S(=O)(=O)N2CCc3ccccc32)cc1C(=O)N1CCN(C=O)CC1, the “hERG current change (%, negative = inhibition) at 1uM” value rises from 6.31% to 13.2%.

First: O=C(CSc1nnc(C2CC2)n1-c1ccccc1)N1CCNC1=O
Second: O=S(=O)(c1ccc(Cl)s1)N1CCN(C/C=C/c2ccccc2)CC1
The “hERG current change (%, negative = inhibition) at 1uM” value of the first is higher: 14.6% for the first, -9.09% for the second.

Compared with O=C(Nc1cccc(Br)c1)c1ccn[nH]1, O=C(COc1cccnc1[N+](=O)[O-])Nc1ccc2c(c1)OC(F)(F)O2 is lower in “hERG current change (%, negative = inhibition) at 1uM” value: 5.21% for the first, -1.61% for the second.

Compared with CC(C)c1ccc(CN2CCSCC2)cc1, OC(CC#CCN1CCCCC1)(c1ccccc1)c1ccccc1 is lower in “hERG current change (%, negative = inhibition) at 1uM” value: 12.3% for the first, 11% for the second.

Compared with OCCNc1nc(N2CCOCC2)nc(N2CCOCC2)n1, O=C(NNC(=O)c1ccc(S(=O)(=O)N2CCOCC2)cc1)c1ccccc1 is higher in “hERG current change (%, negative = inhibition) at 1uM” value: 3.64% for the first, 10.9% for the second.

First: C/C(Cl)=C\C[N+](C)(C)CC(=O)OCCc1ccccc1.[Br-]
Second: CC(C)(C)c1cc2cccnc2n1Cc1ccccc1
The “hERG current change (%, negative = inhibition) at 1uM” value of the first is lower: 5.89% for the first, 8.69% for the second.

First: O=C(Nc1ncnc2sc3c(c12)CCCCC3)c1ccccc1
Second: Cc1csc(NC(=O)c2ccco2)c1C(=O)c1ccccc1
The “hERG current change (%, negative = inhibition) at 1uM” value of the first is lower: -1.57% for the first, 9.2% for the second.

Going from COCCCNCC(=O)Nc1ccc(OC(F)(F)F)cc1.Cl to Cc1cccc(C)c1NC(=O)C[n+]1cc(-c2ccccc2)n2c1CCC2.[Cl-], the “hERG current change (%, negative = inhibition) at 1uM” value rises from -1.34% to 8.62%.

Going from C#CCOc1ccc(Br)cc1/C=N/O to O=c1c2cc(Br)ccc2[nH]c(=S)n1Cc1ccccc1, the “hERG current change (%, negative = inhibition) at 1uM” value rises from 4.51% to 15.4%.

First: CCC(=O)c1cc(-c2nc3ccccc3n2C)n(C)c1
Second: CCCCn1c(=O)c(CCC(=O)OC(C)C(=O)Nc2cccc(Cl)c2Cl)nc2ccccc21 (centres unmarked)
The “hERG current change (%, negative = inhibition) at 1uM” value of the first is higher: 13.5% for the first, 9.5% for the second.

In the case of CNC(=O)c1cccc(N2CCCC2=O)c1, the “hERG current change (%, negative = inhibition) at 1uM” value is reported as 13.5%.
